According to the supplement of paper PMC8728848:
The list shows a part of the results.

Tests used:
Assay in all cases: glycan array binding signal (z-score within array); higher = stronger binding
Settings in all cases: glycan notation: IUPAC condensed, linker removed
[1] = target: Fuc(a1-2)Gal(b1-4)GlcNAc(b1-3)Gal(b1-4)GlcNAc(b1-3)Gal(b1-4)GlcNAc
In short: (§1)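 Glycan array data came from 3228 arrays in the Consortium for Functional Glycomics database, and only arrays with an available protein sequence were kept. Glycan names were put into IUPAC-condensed notation, and columns mapping to the same glycan were averaged. The binding signal is a within-array Z-score, averaged across arrays of one protein sequence run at different concentrations or buffers and across linkers. A negative Z-score can be read as non-binding.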

[2] = target: Fuc(a1-2)Gal(b1-4)GlcNAc(b1-3)GalNAc
In short: as §1

[3] = target: Fuc(a1-2)Gal(b1-4)GlcNAc(b1-3)[Fuc(a1-2)Gal(b1-4)GlcNAc(b1-6)]GalNAc
In short: as §1

[4] = target: Fuc(a1-2)Gal(b1-4)GlcNAc(b1-3)[Fuc(a1-3)[Gal(b1-4)]GlcNAc(b1-6)]Gal(b1-4)Glc
In short: as §1

[5] = target: Fuc(a1-2)Gal(b1-4)GlcNAc(b1-6)GalNAc
In short: as §1

[6] = target: Fuc(a1-2)Gal(b1-4)GlcNAc6S
In short: as §1

[7] = target: Fuc(a1-2)Gal(b1-4)[Fuc(a1-3)]GlcNAc
In short: as §1

[8] = target: Fuc(a1-2)Gal(b1-4)[Fuc(a1-3)]GlcNAc(b1-2)Man(a1-3)[Fuc(a1-2)Gal(b1-4)[Fuc(a1-3)]GlcNAc(b1-2)Man(a1-6)]Man(b1-4)GlcNAc(b1-4)[Fuc(a1-6)]GlcNAc
In short: as §1

[9] = target: Fuc(a1-2)Gal(b1-4)[Fuc(a1-3)]GlcNAc(b1-2)[Fuc(a1-2)Gal(b1-4)[Fuc(a1-3)]GlcNAc(b1-4)]Man(a1-3)[Fuc(a1-2)Gal(b1-4)[Fuc(a1-3)]GlcNAc(b1-2)Man(a1-6)]Man(b1-4)GlcNAc(b1-4)GlcNAc
In short: as §1

[10] = target: Fuc(a1-2)Gal(b1-4)[Fuc(a1-3)]GlcNAc(b1-3)Gal(b1-4)[Fuc(a1-3)]GlcNAc
In short: as §1

[11] = target: Fuc(a1-2)Gal(b1-4)[Fuc(a1-3)]GlcNAc(b1-3)Gal(b1-4)[Fuc(a1-3)]GlcNAc(b1-3)Gal(b1-4)[Fuc(a1-3)]GlcNAc
In short: as §1

[12] = target: Fuc(a1-2)Gal(b1-4)[Fuc(a1-3)]GlcNAc(b1-3)GalNAc
In short: as §1

[13] = target: Fuc(a1-2)Gal(b1-4)[Fuc(a1-3)]GlcNAc(b1-3)[Neu5Ac(a2-6)Gal(b1-4)GlcNAc(b1-6)]Gal(b1-4)Glc
In short: as §1

[14] = target: Fuc(a1-2)Gal3S(b1-4)GlcNAc
In short: as §1

[15] = target: Fuc(a1-2)Gal6S(b1-3)GlcNAc
In short: as §1

[16] = target: Fuc(a1-2)Gal6S(b1-3)GlcNAc6S
In short: as §1

Fuc(a1-2)Gal6S(b1-4)Glc = target: Fuc(a1-2)Gal6S(b1-4)Glc
In short: as §1

[17] = target: Fuc(a1-2)Gal6S(b1-4)Glc6S
In short: as §1

Fuc(a1-2)[Gal(a1-3)]Gal = target: Fuc(a1-2)[Gal(a1-3)]Gal
In short: as §1

[18] = target: Fuc(a1-2)[Gal(a1-3)]Gal(b1-3)GalNAc
In short: as §1

[19] = target: Fuc(a1-2)[Gal(a1-3)]Gal(b1-3)GalNAc(b1-3)Gal(a1-4)Gal(b1-4)Glc
In short: as §1

[20] = target: Fuc(a1-2)[Gal(a1-3)]Gal(b1-3)GlcNAc
In short: as §1

[21] = target: Fuc(a1-2)[Gal(a1-3)]Gal(b1-3)GlcNAc(b1-2)Man(a1-3)[Fuc(a1-2)[Gal(a1-3)]Gal(b1-3)GlcNAc(b1-2)Man(a1-6)]Man(b1-4)GlcNAc(b1-4)GlcNAc
In short: as §1

[22] = target: Fuc(a1-2)[Gal(a1-3)]Gal(b1-3)GlcNAc(b1-2)Man(a1-3)[Fuc(a1-2)[Gal(a1-3)]Gal(b1-3)GlcNAc(b1-2)Man(a1-6)]Man(b1-4)GlcNAc(b1-4)[Fuc(a1-6)]GlcNAc
In short: as §1

[23] = target: Fuc(a1-2)[Gal(a1-3)]Gal(b1-3)GlcNAc(b1-3)GalNAc
In short: as §1

[24] = target: Fuc(a1-2)[Gal(a1-3)]Gal(b1-3)GlcNAc(b1-6)GalNAc
In short: as §1

[25] = target: Fuc(a1-2)[Gal(a1-3)]Gal(b1-4)Glc
In short: as §1

[26] = target: Fuc(a1-2)[Gal(a1-3)]Gal(b1-4)GlcNAc
In short: as §1

[27] = target: Fuc(a1-2)[Gal(a1-3)]Gal(b1-4)GlcNAc(b1-2)Man
In short: as §1

[28] = target: Fuc(a1-2)[Gal(a1-3)]Gal(b1-4)GlcNAc(b1-2)Man(a1-3)[Fuc(a1-2)[Gal(a1-3)]Gal(b1-4)GlcNAc(b1-2)Man(a1-6)]Man(b1-4)GlcNAc(b1-4)GlcNAc
In short: as §1

[29] = target: Fuc(a1-2)[Gal(a1-3)]Gal(b1-4)GlcNAc(b1-2)Man(a1-3)[Fuc(a1-2)[Gal(a1-3)]Gal(b1-4)GlcNAc(b1-2)Man(a1-6)]Man(b1-4)GlcNAc(b1-4)[Fuc(a1-6)]GlcNAc
In short: as §1

[30] = target: Fuc(a1-2)[Gal(a1-3)]Gal(b1-4)GlcNAc(b1-3)GalNAc
In short: as §1

[31] = target: Fuc(a1-2)[Gal(a1-3)]Gal(b1-4)GlcNAc(b1-3)[Fuc(a1-2)[Gal(a1-3)]Gal(b1-4)GlcNAc(b1-6)]GalNAc
In short: as §1

[32] = target: Fuc(a1-2)[Gal(a1-3)]Gal(b1-4)GlcNAc(b1-6)GalNAc
In short: as §1

[33] = target: Fuc(a1-2)[Gal(a1-3)]Gal(b1-4)[Fuc(a1-3)]Glc
In short: as §1

[34] = target: Fuc(a1-2)[Gal(a1-3)]Gal(b1-4)[Fuc(a1-3)]GlcNAc
In short: as §1

[35] = target: Fuc(a1-2)[Gal(a1-3)]Gal(b1-4)[Fuc(a1-3)]GlcNAc(b1-3)GalNAc
In short: as §1

[36] = target: Fuc(a1-2)[Gal(a1-4)]Gal(b1-4)GlcNAc
In short: as §1

[37] = target: Fuc(a1-2)[GalNAc(a1-3)]Gal
In short: as §1

[38] = target: Fuc(a1-2)[GalNAc(a1-3)]Gal(b1-3)GalNAc(a1-3)[Fuc(a1-2)]Gal(b1-4)GlcNAc
In short: as §1

[39] = target: Fuc(a1-2)[GalNAc(a1-3)]Gal(b1-3)GalNAc(b1-3)Gal(a1-4)Gal(b1-4)Glc
In short: as §1

[40] = target: Fuc(a1-2)[GalNAc(a1-3)]Gal(b1-3)GlcNAc
In short: as §1

[41] = target: Fuc(a1-2)[GalNAc(a1-3)]Gal(b1-3)GlcNAc(b1-2)Man(a1-3)[Fuc(a1-2)[GalNAc(a1-3)]Gal(b1-3)GlcNAc(b1-2)Man(a1-6)]Man(b1-4)GlcNAc(b1-4)GlcNAc
In short: as §1

[42] = target: Fuc(a1-2)[GalNAc(a1-3)]Gal(b1-3)GlcNAc(b1-2)Man(a1-3)[Fuc(a1-2)[GalNAc(a1-3)]Gal(b1-3)GlcNAc(b1-2)Man(a1-6)]Man(b1-4)GlcNAc(b1-4)[Fuc(a1-6)]GlcNAc
In short: as §1

[43] = target: Fuc(a1-2)[GalNAc(a1-3)]Gal(b1-3)GlcNAc(b1-3)GalNAc
In short: as §1

B1: rEtpA (Escherichia coli) (protein)
chain: MNRIYKLKFDKRRNELVVVSEITTGVGNAKATGSVEGEKSPRRGVRAMALSLLSGMMIMAHPAMSANLPTGGQIVAGSGSIQTPSGNQMNIHQNSQNMVANWNSFDIGKGNTVQFDQPSSSAVALNRVVGGGESQIMGNLKANGQVFLVNPNGVLFGEGASVSTSGFVASTRDIKNDDFMNRRYTFSGGQKAGAAIVNQGELTTNAGGYIVLAADRVSNSGTIRTPGGKTVLAASERITLQLDNGGLMSVQVTGDVVNALVENRGLVSARDGQVYLTALGRGMLMNTVLNVSGVVEASGMHRQDGNIVLDGGDSGVVHLSGTLQADNASGQGGKVVVQGKNILLDKGSNITATGGQGGGEVYVGGGWQGKDSNIRNADKVVMQGGARIDVSATQQGNGGTAVLWSDSYTNFHGQISAKGGETGGNGGRVETSSHGNLQAFGTVSASAKKGKAGNWLLDSADITIVNGSNVSKTETTQSPPHTQFAPTAAGSAVSNTSINNRLNNGTSVTILTHRTRTGTAQGGNITVNAAINKSNGSDVNLTLQAGGNITVNNSITSTEGKLNVNLSGARTSNGSITISNNANITTNGGDITVGTTNTSNRVNISINNTTLNASNGNIQLTGTGTDSGILFAGNNRLTASNIALTGNSTSGNAINLTGTATLNATNNITLTGSSTSGNAINLKGNNTLTASNITLTGESTSGNAINLTDTTGTTTLNATNNITMQGTRVQIKHSNITAGNFALNATVAGSEISNTTLTATNNINLAAKTNSASSGVYLKDARITSTNGSITANGTATANGKATHLDGNVTLNASNGRIKLTGNGHGSASGILFAGNNRLTASNIALTGNSTSGNAINLTGTATLNATNDITLTGSSTSGNAINLTGTATLNATNNITLTGSSTSGNAINLKGNNTLTASNITLTGESTSGNAINLTDTTGTTTLNATNNITMQGTRVQIKHSNITAGNFALNATVAGSEISNTTLTATNNINLAAKTNSASSGVYLKDARITSTNGSITANGTATANGKATHLDGNVTLNASNGRIKLTGNGHGSASGILFAGNNRLTASNIALTGNSTSGNAINLTGTATLNATNDITLTGSSTSGNAINLTGTATLNATNNITLTGSSTSGNAINLKGNNTLTASNITLTGESTSGNAINLTDTTGTTTLNATNNITMQGTRVQIKHSNITAGNFALNATVAGSEISNTTLTATNNINLAAKTNSASSGVYLKDARITSTNGSITANGTATANGKATHLDGNVTLNASNGRIKLTGNGHGSASGILFAGNNRLTASNIALTGNSTSGNAINLTGTATLNATNDITLTGSSTSGNAINLTGTATLNATNNITLTGSSTSGNAINLKGNNTLTASNITLTGESTSGNAINLTDTTGTTTLNATNNITMQGTRVQIKHSNITAGNFALNATVAGSEISNTTLTATNNINLAAKTNSASSGVYLKDARITSTNGSITTNGTATANGKATHLDGNVTLNASNGRIKLTGNGHGSASGILFAGNNRLTASNIALTGNSTSGNAINLTGTATLNATNDITLTGSSTSGNAINLTGTATLNATNNITLTGSSTSGNAINLKGNNTLTASNITLTGESTSGNAINLTDTTGTTTLNATNNITMQGTRVQIKHSNITAGNFALNATVAGSEISNTTLTATNNINLAAKTNSASSGVYLKDARITSTNGSITANGTAPANDNATYLDGNVTLNASNGSIKLTGNGNGSTSGILFAGNNTLTASNITLTGNSEVYWQKLGPEQKLISEEDLNSAVDHHHHHH
[1]
  glycan array binding signal (z-score): -0.326
[2]
  glycan array binding signal (z-score): -0.377
[3]
  glycan array binding signal (z-score): -0.27
[4]
  glycan array binding signal (z-score): -0.238
[5]
  glycan array binding signal (z-score): -0.296
[6]
  glycan array binding signal (z-score): -0.341
[7]
  glycan array binding signal (z-score): -0.161
[8]
  glycan array binding signal (z-score): -0.245
[9]
  glycan array binding signal (z-score): -0.225
[10]
  glycan array binding signal (z-score): -0.345
[11]
  glycan array binding signal (z-score): -0.333
[12]
  glycan array binding signal (z-score): -0.319
[13]
  glycan array binding signal (z-score): -0.367
[14]
  glycan array binding signal (z-score): -0.293
[15]
  glycan array binding signal (z-score): -0.038
[16]
  glycan array binding signal (z-score): 1.11
Fuc(a1-2)Gal6S(b1-4)Glc
  glycan array binding signal (z-score): -0.205
[17]
  glycan array binding signal (z-score): -0.13
Fuc(a1-2)[Gal(a1-3)]Gal
  glycan array binding signal (z-score): -0.351
[18]
  glycan array binding signal (z-score): 0.413
[19]
  glycan array binding signal (z-score): -0.241
[20]
  glycan array binding signal (z-score): 0.328
[21]
  glycan array binding signal (z-score): -0.364
[22]
  glycan array binding signal (z-score): 0.339
[23]
  glycan array binding signal (z-score): 0.231
[24]
  glycan array binding signal (z-score): -0.374
[25]
  glycan array binding signal (z-score): -0.166
[26]
  glycan array binding signal (z-score): -0.275
[27]
  glycan array binding signal (z-score): -0.076
[28]
  glycan array binding signal (z-score): 0.401
[29]
  glycan array binding signal (z-score): 0.706
[30]
  glycan array binding signal (z-score): -0.289
[31]
  glycan array binding signal (z-score): 0.186
[32]
  glycan array binding signal (z-score): -0.168
[33]
  glycan array binding signal (z-score): -0.445
[34]
  glycan array binding signal (z-score): -0.086
[35]
  glycan array binding signal (z-score): 0.296
[36]
  glycan array binding signal (z-score): -0.09
[37]
  glycan array binding signal (z-score): -0.251
[38]
  glycan array binding signal (z-score): -0.22
[39]
  glycan array binding signal (z-score): -0.343
[40]
  glycan array binding signal (z-score): 0.443
[41]
  glycan array binding signal (z-score): -0.328
[42]
  glycan array binding signal (z-score): 0.54
[43]
  glycan array binding signal (z-score): -0.111
